Reference: paper PMC9911399, “Two distinct binding modes provide the RNA-binding protein RbFox with extraordinary sequence specificity”
Residue numbers refer to the chain shown, from its start. The list shows a part of the results.

T1: RBFOX1 RRM RbFoxmut (Fox-RRM*) (Homo sapiens, UniProt Q9NWB1 109-208, R118D;E147R;N151S;E152T)
T1 sequence: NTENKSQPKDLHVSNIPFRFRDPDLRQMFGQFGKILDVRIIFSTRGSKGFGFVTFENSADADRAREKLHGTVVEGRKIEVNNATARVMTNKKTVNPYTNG

B1: CUGAGUG (DNA:RNA)
RNA: GGGAGACCGGAAUUCAGAUUGUCCCUGAGUGUUAAAUCCCGUCGUAGCCACCA
DNA 1: CAATCTGAATTCCGGTCTCCC
DNA 2: TGGTGGCTACGACGGGATT
B2: ACACUAU (DNA:RNA)
RNA: GGGAGACCGGAAUUCAGAUUGUCCACACUAUUUAAAUCCCGUCGUAGCCACCA
DNA 1: CAATCTGAATTCCGGTCTCCC
DNA 2: TGGTGGCTACGACGGGATT
B3: AAAACUU (DNA:RNA)
RNA: B2 RNA with C26A, C28A, U29C, A30U
DNA 1: CAATCTGAATTCCGGTCTCCC
DNA 2: TGGTGGCTACGACGGGATT
B4: CCGUACC (DNA:RNA)
RNA: B1 RNA with U26C, A28U, G29A, U30C, G31C
DNA 1: CAATCTGAATTCCGGTCTCCC
DNA 2: TGGTGGCTACGACGGGATT
B5: CCAAUGU (DNA:RNA)
RNA: B2 RNA with A25C, C28A, A30G
DNA 1: CAATCTGAATTCCGGTCTCCC
DNA 2: TGGTGGCTACGACGGGATT
B6: GCCGAUC (DNA:RNA)
RNA: B2 RNA with A25G, A27C, C28G, U29A, A30U, U31C
DNA 1: CAATCTGAATTCCGGTCTCCC
DNA 2: TGGTGGCTACGACGGGATT
B7: AACCUGC (DNA:RNA)
RNA: B2 RNA with C26A, A27C, A30G, U31C
DNA 1: CAATCTGAATTCCGGTCTCCC
DNA 2: TGGTGGCTACGACGGGATT
B8: GUCAACA (DNA:RNA)
RNA: B1 RNA with C25G, G27C, G29A, U30C, G31A
DNA 1: CAATCTGAATTCCGGTCTCCC
DNA 2: TGGTGGCTACGACGGGATT
B9: UAGUCGA (DNA:RNA)
RNA: B1 RNA with C25U, U26A, A28U, G29C, U30G, G31A
DNA 1: CAATCTGAATTCCGGTCTCCC
DNA 2: TGGTGGCTACGACGGGATT
B10: GUGAAAG (DNA:RNA)
RNA: B1 RNA with C25G, G29A, U30A
DNA 1: CAATCTGAATTCCGGTCTCCC
DNA 2: TGGTGGCTACGACGGGATT
B11: UUACGAC (DNA:RNA)
RNA: B2 RNA with A25U, C26U, U29G, U31C
DNA 1: CAATCTGAATTCCGGTCTCCC
DNA 2: TGGTGGCTACGACGGGATT
B12: CAUAAUC (DNA:RNA)
RNA: B1 RNA with U26A, G27U, G29A, G31C
DNA 1: CAATCTGAATTCCGGTCTCCC
DNA 2: TGGTGGCTACGACGGGATT
B13: UGAAUUA (DNA:RNA)
RNA: B2 RNA with A25U, C26G, C28A, A30U, U31A
DNA 1: CAATCTGAATTCCGGTCTCCC
DNA 2: TGGTGGCTACGACGGGATT
B14: GUUCUGA (DNA:RNA)
RNA: B2 RNA with A25G, C26U, A27U, A30G, U31A
DNA 1: CAATCTGAATTCCGGTCTCCC
DNA 2: TGGTGGCTACGACGGGATT
B15: UGGCAAC (DNA:RNA)
RNA: B2 RNA with A25U, C26G, A27G, U29A, U31C
DNA 1: CAATCTGAATTCCGGTCTCCC
DNA 2: TGGTGGCTACGACGGGATT
B16: CAGUAUC (DNA:RNA)
RNA: B1 RNA with U26A, A28U, G29A, G31C
DNA 1: CAATCTGAATTCCGGTCTCCC
DNA 2: TGGTGGCTACGACGGGATT
B17: GAAUUAG (DNA:RNA)
RNA: B2 RNA with A25G, C26A, C28U, U31G
DNA 1: CAATCTGAATTCCGGTCTCCC
DNA 2: TGGTGGCTACGACGGGATT
B18: AGGCACU (DNA:RNA)
RNA: B2 RNA with C26G, A27G, U29A, A30C
DNA 1: CAATCTGAATTCCGGTCTCCC
DNA 2: TGGTGGCTACGACGGGATT
B19: CCAAUUC (DNA:RNA)
RNA: B2 RNA with A25C, C28A, A30U, U31C
DNA 1: CAATCTGAATTCCGGTCTCCC
DNA 2: TGGTGGCTACGACGGGATT
B20: UAGCGAA (DNA:RNA)
RNA: B2 RNA with A25U, C26A, A27G, U29G, U31A
DNA 1: CAATCTGAATTCCGGTCTCCC
DNA 2: TGGTGGCTACGACGGGATT

These binders were tested against T1, RBFOX1 RRM RbFoxmut (Fox-RRM*) (assay: EMSA; HiTS-Eq, 1 nM pool, 10 min; buffer printed only for the single-RNA assays: 10 mM Tris pH 7.5, 150 mM NaCl, 3.4 mM EDTA, 0.001% NP-40, 30 C). Conditions: tags: His6 N-terminal (pET28a); label: 5' 32P.
Summary of the method: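 Purified RbFox RRM, wild type or mutant, was incubated for 10 min in 50 µL with 1 nM of a 5′-radiolabelled RNA pool carrying 7 randomized nucleotides, whose flanks were annealed to DNA oligonucleotides, over a series of increasing protein concentrations. Unbound RNA was resolved on 8% native PAGE, cut out, reverse-transcribed, barcoded by PCR and sequenced on an Illumina HiSeq 2500. Relative association constants were derived from changes in read counts for each RNA species versus the control reaction and normalised to the cognate motif.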

Binder	binding signal
B1	0.142 KA relative to UGCAUGU
B2	0.0878 KA relative to UGCAUGU
B3	0.0794 KA relative to UGCAUGU
B4	0.0822 KA relative to UGCAUGU
B5	0.102 KA relative to UGCAUGU
B6	0.0691 KA relative to UGCAUGU
B7	0.0563 KA relative to UGCAUGU
B8	0.0755 KA relative to UGCAUGU
B9	0.0897 KA relative to UGCAUGU
B10	0.106 KA relative to UGCAUGU
B11	0.0702 KA relative to UGCAUGU
B12	0.0533 KA relative to UGCAUGU
B13	0.0758 KA relative to UGCAUGU
B14	0.11 KA relative to UGCAUGU
B15	0.05 KA relative to UGCAUGU
B16	0.177 KA relative to UGCAUGU
B17	0.102 KA relative to UGCAUGU
B18	0.0503 KA relative to UGCAUGU
B19	0.0861 KA relative to UGCAUGU
B20	0.0975 KA relative to UGCAUGU
